Out of some 220,000 compounds screened, about 16,000 (7.3%) were called active. This list was built around the results that the source calls inconclusive (neither active nor inactive); the mix of calls is not that of the screen. Calls follow the shape of the dose curve; as a rule, active = well fitted inhibition curve with a large enough effect (not every such curve was filed as active); inconclusive = small, poorly fitted or top-dose-only effect, or another doubt; inactive = no such curve, though single readings can be large or run the other way. A potency beside an inconclusive call is a rough fit, not a confirmed value.
Molecular target: Aldehyde dehydrogenase 1A1 (Homo sapiens) (UniProt P00352)
UniProt P00352, sequence (P00352 whole entry, looked up): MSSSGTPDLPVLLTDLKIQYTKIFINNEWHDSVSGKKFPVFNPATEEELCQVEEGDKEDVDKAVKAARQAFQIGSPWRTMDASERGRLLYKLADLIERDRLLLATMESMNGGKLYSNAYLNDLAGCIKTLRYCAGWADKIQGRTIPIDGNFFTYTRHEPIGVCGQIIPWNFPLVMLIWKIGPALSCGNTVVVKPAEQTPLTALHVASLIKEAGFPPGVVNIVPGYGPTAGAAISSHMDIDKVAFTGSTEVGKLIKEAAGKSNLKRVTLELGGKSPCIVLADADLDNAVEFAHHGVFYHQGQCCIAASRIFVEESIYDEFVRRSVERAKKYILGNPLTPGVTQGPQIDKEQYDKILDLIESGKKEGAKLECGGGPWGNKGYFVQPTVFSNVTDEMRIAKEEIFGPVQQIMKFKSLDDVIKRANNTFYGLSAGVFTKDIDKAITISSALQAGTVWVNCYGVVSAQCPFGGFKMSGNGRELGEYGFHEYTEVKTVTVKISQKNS
Assay: qHTS Assay for Inhibitors of Aldehyde Dehydrogenase 1 (ALDH1A1);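 as to activity, negative = inhibition: plate controls were no enzyme wells and a reference inhibitor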
Settings: Purified ALDH1A1, NADH fluorescence, propionaldehyde substrate; series mostly up to 75.3 µM; activity, negative = inhibition: at the top concentration
Potency is read from the fitted curve at half-maximal effect; tags tell the direction and shape of the fitted curve.

activity, negative = inhibition, inactive:
COc1ccc(/C=N\NC(=O)CCc2c(C)n[nH]c2C)c(OC)c1OC -0.692%
Cc1nn(Cc2ccccc2)c(Cl)c1C(=O)OCc1nnc(-c2ccc(Cl)cc2)o1 1.79%
Cc1cccc(NC(=O)Cn2cnc3ccc(S(=O)(=O)N4CCC(C)CC4)cc3c2=O)n1 -6.4%
O=P(O)(O)CP(=O)(O)O 4.45%
O=C(Nc1ccc2ccccc2c1)C(=O)C1C(=O)Nc2ccccc21 (centres undefined) -1.9%
Cc1cnc(CNc2ncncc2-c2c(C)noc2C)cn1 -2.72%
C=CCNS(=O)(=O)c1ccc(N2C(=O)c3ccccc3C2=O)cc1 -0.165%
O=C(Nc1ccc(Nc2ccncc2)cc1)c1ccc(Nc2ccnc3ccc([N+](=O)[O-])cc23)cc1[N+](=O)[O-] 31.3%
CC(C)(C)N1C(=O)[C@H]2[C@H]3[C@H](O)[C@H](O)C/C(=N/NC(=O)OCc4ccccc4)[C@@H]3CC[C@@H]2C1=O -7.66% [at 13.5 µM]
Cc1ccc(SCC(=O)NCC(C)C)cc1 -1.48%
Cc1ccc(-n2cc(-c3ccccc3)c3c(N4CCN(C)CC4)ncnc32)cc1 3.04%
CCOc1c(Br)ccc2c1sc1nc[nH]c(=O)c12 2.59%

Potency, active:
CCc1ccc(S(=O)(=O)NC(=S)NC2CCCCC2)cc1 25.1 µM
Cc1oc2ccc(O)c(CN3CCOCC3)c2c1C(C)O (centres undefined) 7.08 µM
COc1ccc(N2C(=O)CC(Sc3nnnn3-c3ccc(F)cc3)C2=O)cc1 (centres undefined) 2.51 µM
CCOc1ccc(S(=O)(=O)Nc2ccc(C(=O)N/N=C(\C)c3ccc(-n4ccnc4)cc3)cc2)cc1 15.8 µM
CCSC1=N/C(=C\c2ccc(-c3ccccc3[N+](=O)[O-])o2)C(=O)S1 0.316 µM

Potency, inconclusive:
Cc1ccccc1/C=C\c1nc2ccccc2c(=O)[nH]1 35.5 µM [inhibitor, single point]
CN(C)CCNC(=O)/C(=C/c1ccc(-c2ccc(Cl)cc2Cl)o1)NC(=O)c1ccccc1 44.7 µM [inhibitor, single point]
COc1cc2[nH]c(=S)nc(NC3CCCC3)c2cc1OC 31.6 µM [inhibitor, single point]
c1ccc(Oc2nc(-c3ccccn3)nc3ccccc23)cc1 31.6 µM [inhibitor, partial curve]
CCOC(=O)CSc1cccc2cccnc12 39.8 µM [inhibitor, single point]
O=C(CN1C(=O)CC(c2ccccc2)=Nc2ccccc21)NCc1ccco1 31.6 µM [inhibitor, single point]
Cc1ccc(S(=O)(=O)/N=C(\N)Nc2nc(C)c3ccccc3n2)cc1 31.6 µM [inhibitor, partial curve]
Nc1nonc1C(=O)N/N=C/c1ccc(-c2cccc(C(=O)O)c2)o1 39.8 µM [inhibitor, single point]
COc1ccccc1NC(=O)C1=C(C)NC2=C(C(=O)CCC2)C1c1ccc2c(c1)OCO2 (centres undefined) 39.8 µM [inhibitor, single point]
CCOC(=O)c1c(NC(=O)CSc2nnc(-c3c[nH]c4ccccc34)n2CCOC)sc2c1CCCC2 8.91 µM [inhibitor, partial curve]
O=C(CCc1ccc(S(=O)(=O)NCCc2ccccc2)cc1)N1CCN(Cc2ccc3c(c2)OCO3)CC1 35.5 µM [inhibitor, single point]
CCc1nc(N2CCOCC2)c(C#N)c2c1CCCC2 35.5 µM [inhibitor, single point]
C#CCn1c(=NC(=O)c2cccs2)sc2cccc(OCC)c21 14.1 µM [inhibitor, partial curve]
COC(=O)c1c(S(=O)(=O)NCc2ccccc2)sc(C(=O)O)c1C 39.8 µM [inhibitor, single point]
O=C(N1CCOCC1)N1CCN(c2nc(-c3ccccc3)cs2)CC1 31.6 µM [inhibitor, single point]
C=CCNc1nnc(SCC(=O)N2CCCCC2)c2ccccc12 39.8 µM [inhibitor, single point]
Cc1ccc(C)n1-c1ccc(-c2ccnc(N)n2)cc1 35.5 µM [inhibitor, single point]
O=C(NCc1ccc2[nH]c3c(c2c1)CCCC3)c1ccc(S(=O)(=O)N2CCCCC2)cc1 35.5 µM [inhibitor, single point]
Cc1cccc(NS(=O)(=O)c2ccc3[nH]c(=O)cc(C(=O)OC(C)C(=O)Nc4ccc([N+](=O)[O-])cc4)c3c2)c1 (centres undefined) 5.01 µM [inhibitor, full curve]
COc1ccc(C(=O)N2CCC[C@@]3(CCN(Cc4ccccc4)C3)C2)cc1 39.8 µM [inhibitor, single point]
CSCCC(NS(=O)(=O)c1ccc2ccccc2c1)C(=O)OCC(=O)c1ccc(C(C)C)cc1 (centres undefined) 12.6 µM [inhibitor, partial curve]
CCOC(=O)Nc1sc2c(c1C(=O)OCC)CCC2 39.8 µM [inhibitor, single point]
CCOC(=O)c1c(C2CC2)csc1NC(=O)COC(=O)CCS(=O)(=O)c1ccc(C)cc1 31.6 µM [inhibitor, partial curve]
COc1ccc(C)cc1NC(=O)CSc1nnc(COc2ccc(C)cc2)n1Cc1ccco1 44.7 µM [inhibitor, single point]
N#Cc1ccc(CSc2nnc(NC(=O)C3CCCO3)s2)cc1 (centres undefined) 31.6 µM [inhibitor, single point]
CCCCc1c(C)c2ccc(OC)c(/C(C)=N\O)c2oc1=O 39.8 µM [inhibitor, single point]
Cc1cc(C(=O)Nn2c(C)nc3ccccc3c2=O)ccc1[N+](=O)[O-] 35.5 µM [inhibitor, single point]

— PubChem BioAssay AID1030 (National Center for Advancing Translational Sciences (NCATS), 2008)
